The source of these data is PubChem BioAssay (NCI).

Each structure is given as a SMILES string.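 Interpolation was linear, between the two tested concentrations surrounding the appropriate level; five concentrations were tested over 48 hours in 96-well plates. The concentration for 50% growth inhibition is given as GI50. TGI denotes the concentration required for complete inhibition of growth.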

The test system of the test is NCI-H322M lung. Briefly: growth of human tumour cells (NCI), 48 h.

With `Nc1nc(Nc2ccc(Cl)cc2)n(Cc2cccc(Br)c2)n1`, the GI50 is 34 µM and the TGI is > 100 µM.
Taken in the same sequence, the figures for `COc1cc(OC)cc(-c2cc3ccc(N(C)C)cc3c(=O)[nH]2)c1` were 0.076 µM and > 100 µM.
